Like-named read-outs stand apart in the source and are kept apart here. These are yes or no findings as the source states them, for the method shown. For some assays here: Binding seen in cells or lysates may run through a third protein. Some entries that bind do so weakly or less than the wild type. For some assays here: Where a sequence is shown, tags or fusion partners need not be part of it.

Amino acid sequences for entries named in this document (tags omitted). A change or cut given only in a name is not applied to a line headed by its entry.
UniProt P31749: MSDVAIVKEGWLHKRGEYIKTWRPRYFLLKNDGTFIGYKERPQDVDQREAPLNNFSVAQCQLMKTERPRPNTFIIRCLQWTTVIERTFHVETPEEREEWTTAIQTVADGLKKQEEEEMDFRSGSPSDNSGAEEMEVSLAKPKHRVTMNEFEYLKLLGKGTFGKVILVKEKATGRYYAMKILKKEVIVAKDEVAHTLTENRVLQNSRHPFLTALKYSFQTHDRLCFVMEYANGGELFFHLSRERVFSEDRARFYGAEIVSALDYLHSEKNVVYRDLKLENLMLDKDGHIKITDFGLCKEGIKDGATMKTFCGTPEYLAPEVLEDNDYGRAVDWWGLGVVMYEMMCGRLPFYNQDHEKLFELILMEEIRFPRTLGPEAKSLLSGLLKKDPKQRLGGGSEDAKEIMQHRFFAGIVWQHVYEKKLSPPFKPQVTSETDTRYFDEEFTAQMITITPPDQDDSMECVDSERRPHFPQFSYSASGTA
UniProt P31750: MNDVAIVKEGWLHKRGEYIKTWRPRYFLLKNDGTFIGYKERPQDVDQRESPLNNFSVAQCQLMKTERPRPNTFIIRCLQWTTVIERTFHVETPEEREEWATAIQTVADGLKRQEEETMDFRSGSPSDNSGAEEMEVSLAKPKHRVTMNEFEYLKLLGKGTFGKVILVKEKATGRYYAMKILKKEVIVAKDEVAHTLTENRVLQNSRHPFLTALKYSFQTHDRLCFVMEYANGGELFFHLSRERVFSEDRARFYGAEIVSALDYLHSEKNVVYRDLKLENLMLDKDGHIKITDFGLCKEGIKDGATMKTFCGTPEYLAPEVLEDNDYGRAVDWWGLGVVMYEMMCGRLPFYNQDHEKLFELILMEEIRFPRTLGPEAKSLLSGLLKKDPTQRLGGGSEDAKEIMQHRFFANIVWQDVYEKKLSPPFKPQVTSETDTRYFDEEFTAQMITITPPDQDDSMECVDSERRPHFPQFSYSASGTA

This note sets out measurements from PMC7744066.

For experiment [1], the target named is T1, Flag-Aldob (UniProt P05062).
T1 sequence: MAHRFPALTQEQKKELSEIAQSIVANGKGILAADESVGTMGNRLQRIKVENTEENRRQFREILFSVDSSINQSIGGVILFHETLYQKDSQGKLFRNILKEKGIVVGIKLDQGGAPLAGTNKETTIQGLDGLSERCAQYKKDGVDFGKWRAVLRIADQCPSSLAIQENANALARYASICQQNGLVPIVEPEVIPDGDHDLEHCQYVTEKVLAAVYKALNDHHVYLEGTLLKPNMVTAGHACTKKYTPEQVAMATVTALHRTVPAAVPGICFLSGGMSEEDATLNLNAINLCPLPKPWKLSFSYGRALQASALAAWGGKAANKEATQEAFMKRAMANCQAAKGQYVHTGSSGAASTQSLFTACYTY
Put plainly: co-IP; lysates of Huh7 cells transfected with the indicated constructs (and siRNAs) or of LM3-Aldob cells; anti-Flag or anti-Myc affinity gel or anti-Akt1 antibody with Protein A/G beads, overnight at 4°C, washed 4 times; in some panels cells serum-starved then 0.1 μM insulin or 100 ng/ml EGF, or MK2206 (1 μM) for 24 hours.

The target in experiment [2] is T2, Aldob stably expressed in LM3 cells (LM3-Aldob) (UniProt P05062).
T2 sequence: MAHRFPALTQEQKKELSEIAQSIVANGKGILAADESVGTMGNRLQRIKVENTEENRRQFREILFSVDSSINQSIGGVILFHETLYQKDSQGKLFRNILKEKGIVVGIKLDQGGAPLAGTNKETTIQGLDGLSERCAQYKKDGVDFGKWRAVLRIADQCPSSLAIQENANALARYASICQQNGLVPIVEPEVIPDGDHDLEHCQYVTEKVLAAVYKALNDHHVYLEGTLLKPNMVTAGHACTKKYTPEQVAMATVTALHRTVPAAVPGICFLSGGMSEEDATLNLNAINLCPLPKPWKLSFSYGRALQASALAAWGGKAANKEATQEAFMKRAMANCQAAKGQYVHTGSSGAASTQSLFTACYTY
The experiment is described as above.

The target in experiment [3] is Myc-Akt1 (UniProt P31749). Put plainly: co-IP; IP analysis with whole cell lysate of Myc-Akt1-transfected Huh7 cells and recombinant His-Aldob (WT, point mutants or truncated mutants); only the binder purified.
Experiment [4] concerns the target Akt1, endogenous in human liver tissue (human (endogenous in liver tissue)) (UniProt P31749). Description: co-IP; endogenous proteins in lysates of 2 pairs of human HCC tumor and adjacent normal liver tissues; anti-Aldob and anti-Akt1 IP, IgG as negative control.
For experiment [5], the target named is GST-Akt1 (UniProt P31749). Put plainly: pull-down; GST pull-down: recombinant GST-Akt1 or GST incubated with His-Aldob in binding buffer (25 mM Tris-HCl, 200 mM NaCl, 1 mM EDTA, 0.5% NP-40, BSA, 1 mM DTT, pH 7.3), Glutathione Sepharose 4B overnight; both purified.
The target of experiment [6] is T1, Flag-Aldob. Description: co-IP; lysates of Huh7 cells transfected with the indicated constructs (and siRNAs) or of LM3-Aldob cells; anti-Flag or anti-Myc affinity gel or anti-Akt1 antibody with Protein A/G beads, overnight at 4°C, washed 4 times; in some panels cells serum-starved then 0.1 μM insulin or 100 ng/ml EGF, or MK2206 (1 μM) for 24 hours. This is another data set of the same source.

Experiment [7] concerns the target Akt1, endogenous in mouse liver (mouse (endogenous in liver tissue)) (UniProt P31750). Put plainly: co-IP; endogenous proteins in liver tissue lysates of WT and ALDOB KO mice; anti-Aldob or anti-Akt1 antibody overnight at 4°C, Protein A/G Sepharose beads, IgG as negative control.

As to Myc-Akt1 (from UniProt P31749 1-480), the binding result in experiment [1] is “binds”.

“Akt1, endogenous in Huh7 cells (from UniProt P31749 1-480)”: in experiment [1], the binding entry is reported as “binds”.

Take Akt1-T308A (from UniProt P31749 1-480): the binding result in experiment [1] was “binds”.

Consider Akt1-S473A (from UniProt P31749 1-480), for which, in experiment [1], the binding result is given as “binds”.

Take “Akt1, endogenous in LM3 cells (from UniProt P31749 1-480)”: the binding entry in experiment [2] is “binds”.

B1: His-Aldob R304A (protein, UniProt P05062 1-364)
chain: MAHRFPALTQEQKKELSEIAQSIVANGKGILAADESVGTMGNRLQRIKVENTEENRRQFREILFSVDSSINQSIGGVILFHETLYQKDSQGKLFRNILKEKGIVVGIKLDQGGAPLAGTNKETTIQGLDGLSERCAQYKKDGVDFGKWRAVLRIADQCPSSLAIQENANALARYASICQQNGLVPIVEPEVIPDGDHDLEHCQYVTEKVLAAVYKALNDHHVYLEGTLLKPNMVTAGHACTKKYTPEQVAMATVTALHRTVPAAVPGICFLSGGMSEEDATLNLNAINLCPLPKPWKLSFSYGAALQASALAAWGGKAANKEATQEAFMKRAMANCQAAKGQYVHTGSSGAASTQSLFTACYTY
In the case of B1, the binding entry in experiment [3] is listed as “binds weakly”.

B2: His-Aldob R46A (protein, UniProt P05062 1-364)
chain: MAHRFPALTQEQKKELSEIAQSIVANGKGILAADESVGTMGNRLQAIKVENTEENRRQFREILFSVDSSINQSIGGVILFHETLYQKDSQGKLFRNILKEKGIVVGIKLDQGGAPLAGTNKETTIQGLDGLSERCAQYKKDGVDFGKWRAVLRIADQCPSSLAIQENANALARYASICQQNGLVPIVEPEVIPDGDHDLEHCQYVTEKVLAAVYKALNDHHVYLEGTLLKPNMVTAGHACTKKYTPEQVAMATVTALHRTVPAAVPGICFLSGGMSEEDATLNLNAINLCPLPKPWKLSFSYGRALQASALAAWGGKAANKEATQEAFMKRAMANCQAAKGQYVHTGSSGAASTQSLFTACYTY
Regarding B2, the binding result in experiment [3] was “binds”.

B3: His-Aldob K147A (protein, UniProt P05062 1-364)
chain: MAHRFPALTQEQKKELSEIAQSIVANGKGILAADESVGTMGNRLQRIKVENTEENRRQFREILFSVDSSINQSIGGVILFHETLYQKDSQGKLFRNILKEKGIVVGIKLDQGGAPLAGTNKETTIQGLDGLSERCAQYKKDGVDFGAWRAVLRIADQCPSSLAIQENANALARYASICQQNGLVPIVEPEVIPDGDHDLEHCQYVTEKVLAAVYKALNDHHVYLEGTLLKPNMVTAGHACTKKYTPEQVAMATVTALHRTVPAAVPGICFLSGGMSEEDATLNLNAINLCPLPKPWKLSFSYGRALQASALAAWGGKAANKEATQEAFMKRAMANCQAAKGQYVHTGSSGAASTQSLFTACYTY
With B3, the binding entry in experiment [3] is listed as “binds”.

B4: aldolase B (Aldob), endogenous in human liver tissue (protein, UniProt P05062 1-364)
chain: MAHRFPALTQEQKKELSEIAQSIVANGKGILAADESVGTMGNRLQRIKVENTEENRRQFREILFSVDSSINQSIGGVILFHETLYQKDSQGKLFRNILKEKGIVVGIKLDQGGAPLAGTNKETTIQGLDGLSERCAQYKKDGVDFGKWRAVLRIADQCPSSLAIQENANALARYASICQQNGLVPIVEPEVIPDGDHDLEHCQYVTEKVLAAVYKALNDHHVYLEGTLLKPNMVTAGHACTKKYTPEQVAMATVTALHRTVPAAVPGICFLSGGMSEEDATLNLNAINLCPLPKPWKLSFSYGRALQASALAAWGGKAANKEATQEAFMKRAMANCQAAKGQYVHTGSSGAASTQSLFTACYTY
Turning to B4, in experiment [4], the binding entry is “binds”.

B5: His-Aldob R149A (protein, UniProt P05062 1-364)
chain: MAHRFPALTQEQKKELSEIAQSIVANGKGILAADESVGTMGNRLQRIKVENTEENRRQFREILFSVDSSINQSIGGVILFHETLYQKDSQGKLFRNILKEKGIVVGIKLDQGGAPLAGTNKETTIQGLDGLSERCAQYKKDGVDFGKWAAVLRIADQCPSSLAIQENANALARYASICQQNGLVPIVEPEVIPDGDHDLEHCQYVTEKVLAAVYKALNDHHVYLEGTLLKPNMVTAGHACTKKYTPEQVAMATVTALHRTVPAAVPGICFLSGGMSEEDATLNLNAINLCPLPKPWKLSFSYGRALQASALAAWGGKAANKEATQEAFMKRAMANCQAAKGQYVHTGSSGAASTQSLFTACYTY
In the case of B5, the binding entry in experiment [3] was “binds”.

B6: His-Aldob (protein, UniProt P05062 1-364)
chain: MAHRFPALTQEQKKELSEIAQSIVANGKGILAADESVGTMGNRLQRIKVENTEENRRQFREILFSVDSSINQSIGGVILFHETLYQKDSQGKLFRNILKEKGIVVGIKLDQGGAPLAGTNKETTIQGLDGLSERCAQYKKDGVDFGKWRAVLRIADQCPSSLAIQENANALARYASICQQNGLVPIVEPEVIPDGDHDLEHCQYVTEKVLAAVYKALNDHHVYLEGTLLKPNMVTAGHACTKKYTPEQVAMATVTALHRTVPAAVPGICFLSGGMSEEDATLNLNAINLCPLPKPWKLSFSYGRALQASALAAWGGKAANKEATQEAFMKRAMANCQAAKGQYVHTGSSGAASTQSLFTACYTY
Turning to B6, the binding entry in experiment [3] and in experiment [5] was “binds” in each case.

B7: His-Aldob a.a. 1-240 (domain or fragment, UniProt P05062 1-240)
chain: MAHRFPALTQEQKKELSEIAQSIVANGKGILAADESVGTMGNRLQRIKVENTEENRRQFREILFSVDSSINQSIGGVILFHETLYQKDSQGKLFRNILKEKGIVVGIKLDQGGAPLAGTNKETTIQGLDGLSERCAQYKKDGVDFGKWRAVLRIADQCPSSLAIQENANALARYASICQQNGLVPIVEPEVIPDGDHDLEHCQYVTEKVLAAVYKALNDHHVYLEGTLLKPNMVTAGHAC
As for B7, in experiment [3], the binding entry is recorded as “no binding”.

B8: phosphoinositide-dependent kinase 1 (PDK1) (protein, UniProt O15530 1-556)
chain: MARTTSQLYDAVPIQSSVVLCSCPSPSMVRTQTESSTPPGIPGGSRQGPAMDGTAAEPRPGAGSLQHAQPPPQPRKKRPEDFKFGKILGEGSFSTVVLARELATSREYAIKILEKRHIIKENKVPYVTRERDVMSRLDHPFFVKLYFTFQDDEKLYFGLSYAKNGELLKYIRKIGSFDETCTRFYTAEIVSALEYLHGKGIIHRDLKPENILLNEDMHIQITDFGTAKVLSPESKQARANSFVGTAQYVSPELLTEKSACKSSDLWALGCIIYQLVAGLPPFRAGNEYLIFQKIIKLEYDFPEKFFPKARDLVEKLLVLDATKRLGCEEMEGYGPLKAHPFFESVTWENLHQQTPPKLTAYLPAMSEDDEDCYGNYDNLLSQFGCMQVSSSSSSHSLSASDTGLPQRSGSNIEQYIHDLDSNSFELDLQFSEDEKRLLLEKQAGGNPWHQFVENNLILKMGPVDKRKGLFARRRQLLLTEGPHLYYVDPVNKVLKGEIPWSQELRPEAKNFKTFFVHTPNRTYYLMDPSGNAHKWCRKIQEVWRQRYQSHPDAAVQ
B8: the binding entry in experiment [6] is “no binding”.

B9: aldolase B (Aldob), endogenous in mouse liver (protein, UniProt Q91Y97 1-364)
chain: MAHRFPALTPEQKKELSEIAQRIVANGKGILAADESVGTMGNRLQRIKVENTEENRRQFRELLFSVDNSISQSIGGVILFHETLYQKDSQGNLFRNVLKEKGIVVGIKLDQGGAPLAGTNKETTIQGLDGLSERCAQYKKDGVDFGKWRAVLRIADQCPSSLAIQENANALARYASICQQNGLVPIVEPEVLPDGDHDLEHCQYVSEKVLAAVYKALNDHHVYLEGTLLKPNMVTAGHACTKKYTPEQVAMATVTALHRTVPAAVPGICFLSGGMSEEDATLNLNAINRCPLPRPWKLSFSYGRALQASALAAWGGKAANKKATQEAFMKRAMANCQAAQGQYVHTGSSGAAATQSLFTASYTY
For the molecule B9, the binding result in experiment [7] was “binds”.

B10: regulatory subunit of PP2A (PP2A-B55α) (protein, UniProt P63151 1-447)
chain: MAGAGGGNDIQWCFSQVKGAVDDDVAEADIISTVEFNHSGELLATGDKGGRVVIFQQEQENKIQSHSRGEYNVYSTFQSHEPEFDYLKSLEIEEKINKIRWLPQKNAAQFLLSTNDKTIKLWKISERDKRPEGYNLKEEDGRYRDPTTVTTLRVPVFRPMDLMVEASPRRIFANAHTYHINSISINSDYETYLSADDLRINLWHLEITDRSFNIVDIKPANMEELTEVITAAEFHPNSCNTFVYSSSKGTIRLCDMRASALCDRHSKLFEEPEDPSNRSFFSEIISSISDVKFSHSGRYMMTRDYLSVKIWDLNMENRPVETYQVHEYLRSKLCSLYENDCIFDKFECCWNGSDSVVMTGSYNNFFRMFDRNTKRDITLEASRENNKPRTVLKPRKVCASGKRKKDEISVDSLDFNKKILHTAWHPKENIIAVATTNNLYIFQDKVN
As for B10, the binding result in experiment [6] was “no binding”.

B11: His-Aldob a.a. 1-155 (domain or fragment, UniProt P05062 1-155)
chain: MAHRFPALTQEQKKELSEIAQSIVANGKGILAADESVGTMGNRLQRIKVENTEENRRQFREILFSVDSSINQSIGGVILFHETLYQKDSQGKLFRNILKEKGIVVGIKLDQGGAPLAGTNKETTIQGLDGLSERCAQYKKDGVDFGKWRAVLRIA
As to B11, the binding result in experiment [3] is “no binding”.
